{"source": "PubChem BioAssay AID485360", "about": "(National Center for Advancing Translational Sciences (NCATS), 2010)", "note": "Among all 230,000 compounds or so, about 1,500 (0.65%) were called active. Inconclusive means that the source gave no clear call. Such entries were picked first, then a sample of the others. Calls follow the shape of the dose curve; as a rule, active = well fitted inhibition curve with a large enough effect; inconclusive = small, poorly fitted or top-dose-only effect; inactive = no such curve, though single readings can be large or run the other way. Potencies beside an inconclusive call are fits to weak or partial responses and may not hold up. Potency is read from the fitted curve at half-maximal effect; tags tell the direction and shape of the fitted curve."}
{"target": "Lethal(3)malignant brain tumor-like protein 1 (Homo sapiens) (UniProt Q9Y468)", "sequence (Q9Y468 whole entry, looked up)": "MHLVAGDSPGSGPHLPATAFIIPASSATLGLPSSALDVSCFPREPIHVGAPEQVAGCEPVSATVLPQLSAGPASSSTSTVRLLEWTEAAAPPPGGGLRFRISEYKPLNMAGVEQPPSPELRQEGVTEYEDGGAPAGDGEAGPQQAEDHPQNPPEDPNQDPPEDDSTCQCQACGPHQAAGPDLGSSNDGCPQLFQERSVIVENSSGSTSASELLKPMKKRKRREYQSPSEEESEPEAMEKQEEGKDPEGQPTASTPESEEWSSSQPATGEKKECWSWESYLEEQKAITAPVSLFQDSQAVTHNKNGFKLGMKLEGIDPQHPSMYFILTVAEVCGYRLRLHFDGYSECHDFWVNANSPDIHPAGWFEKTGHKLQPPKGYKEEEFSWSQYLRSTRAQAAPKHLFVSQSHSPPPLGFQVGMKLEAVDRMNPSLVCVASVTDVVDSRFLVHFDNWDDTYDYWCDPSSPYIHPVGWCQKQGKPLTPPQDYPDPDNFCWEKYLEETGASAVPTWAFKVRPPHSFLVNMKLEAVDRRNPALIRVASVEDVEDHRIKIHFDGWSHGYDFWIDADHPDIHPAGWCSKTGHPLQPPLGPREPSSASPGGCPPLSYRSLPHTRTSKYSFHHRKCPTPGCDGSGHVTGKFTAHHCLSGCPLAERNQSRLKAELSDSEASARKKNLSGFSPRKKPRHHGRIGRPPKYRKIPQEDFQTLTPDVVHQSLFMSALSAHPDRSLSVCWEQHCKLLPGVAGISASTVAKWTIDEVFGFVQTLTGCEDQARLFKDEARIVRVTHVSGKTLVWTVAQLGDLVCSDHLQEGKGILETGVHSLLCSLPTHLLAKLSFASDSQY", "assay": "qHTS Assay for the Inhibitors of L3MBTL1; also: nearly all actives have a fitted effect of over 60% in size", "conditions": "AlphaScreen L3MBTL1–H3K9me1 peptide binding; series mostly up to 57.1 µM", "how_it_was_run": "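Displacement of a biotinylated histone H3(1-15) peptide monomethylated at Lys9 (75 nM) from L3MBTL1 (50 nM) was measured by AlphaScreen after a 30 min room-temperature compound incubation; cefsulodin titration served as intraplate control.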"}
{"smiles": "NC(=S)Nc1cccc2cn[nH]c12", "Potency": "inconclusive: 44.7 µM [inhibitor, partial curve, poor fit]"}
{"smiles": "Cc1cccc(OCC(O)CN2CC3(C)CC2CC(C)(C)C3)c1", "note": "(stereo unspecified)", "Potency": "inconclusive: 39.8 µM [inhibitor, single point]"}
{"smiles": "O=C(O)CCNC(=O)/C(=C\\c1ccco1)NC(=O)c1ccco1", "Potency": "inconclusive: 31.6 µM [inhibitor, single point]"}
{"smiles": "O=C(Nc1cc(Cl)ccc1-n1cncn1)c1ccc([N+](=O)[O-])o1", "Potency": "inactive"}
{"smiles": "CC(=O)c1cccc(S(=O)(=O)N2CCn3cccc3C2C)c1", "note": "(stereo unspecified)", "Potency": "inconclusive: 25.1 µM [inhibitor, single point]"}
{"smiles": "O=c1[nH]c(CSc2cccc[n+]2[O-])nc2ccccc12", "Potency": "inactive"}
{"smiles": "Cc1c(C(=O)O)cccc1-n1c(C)cc(/C=N/NC(=O)c2cc3ccccc3o2)c1C", "Potency": "inconclusive: 5.62 µM [inhibitor, single point]"}
{"smiles": "O=C(CSc1nc2c([nH]c3ccccc32)c(=O)n1-c1ccc(F)cc1)NCc1ccco1", "Potency": "inconclusive: 39.8 µM [inhibitor, single point]"}
{"smiles": "COC(=O)c1ccc(NC(=O)c2cccc(Cl)c2)o1", "Potency": "inactive"}
{"smiles": "COc1cc(Cl)c(NC2=CC(=O)C(=O)c3ccccc32)c(OC)c1", "Potency": "inconclusive: 5.62 µM [inhibitor, full curve, poor fit]"}
{"smiles": "COc1ccc(N2Nc3n[nH]c(N)c3N2)cc1", "Potency": "inactive"}
{"smiles": "Cc1onc(-c2ccccc2)c1C(=O)NC(=S)Nc1sc2c(c1C#N)CCC(C)C2", "note": "(stereo unspecified)", "Potency": "inactive"}
{"smiles": "C=CCn1c(SCC(=O)NC23CC4CC(CC(C4)C2)C3)nc(O)cc1=O", "Potency": "inconclusive: 7.08 µM [inhibitor, single point]"}
{"smiles": "CC(C)(O)[C@H](O)COc1c2occc2cc2ccc(=O)oc12", "Potency": "inactive"}
{"smiles": "Cc1cccc(/C=N/NC(=O)C2CCCNC2=O)c1", "note": "(stereo unspecified)", "Potency": "inactive"}
{"smiles": "Cc1ccc(OCC(=O)OC(C)CN(C)Cc2ccccc2)cc1", "note": "(stereo unspecified)", "Potency": "inconclusive: 5.01 µM [inhibitor, partial curve]"}
{"smiles": "Cc1ncc(CO)c2cc(S(=O)(=O)c3ccc(F)cc3)c(=O)oc12", "Potency": "inconclusive: 6.31 µM [inhibitor, full curve]"}
{"smiles": "CCN(c1ccc(NC(=O)c2ccc(Cl)nc2)cc1)C(C)C", "Potency": "inconclusive: 15.8 µM [inhibitor, partial curve]"}
{"smiles": "O=C(CSc1nc2ccccc2n1CCc1ccccc1)c1ccc(O)c(O)c1", "Potency": "active: 3.16 µM"}
{"smiles": "CCOC(=O)c1c(NC(=O)CSc2nc3ccccc3s2)sc(C(C)=O)c1C", "Potency": "inactive"}
{"smiles": "O=C(O)C(Cc1ccccc1)N1C(=O)/C(=C/C=C/c2ccco2)SC1=S", "note": "(stereo unspecified)", "Potency": "active: 1.26 µM"}
{"smiles": "O=C(c1ccccn1)N(Cc1cccs1)C1(C(=O)NC2CCCCC2)CCCCC1", "Potency": "inconclusive: 10 µM [inhibitor, partial curve]"}
{"smiles": "O=C(COc1ccc(S(=O)(=O)NC2CCCCC2)cc1)NC1CCCC1", "Potency": "inactive"}
{"smiles": "O=C(CN1C(=O)/C(=C/c2cccc(Br)c2)SC1=S)Nc1cccnc1", "Potency": "inactive"}
{"smiles": "COc1cc2c(C#N)c(N3CCOCC3)nc(N)c2c(N)n1", "Potency": "inactive"}
{"smiles": "CCN(c1ccccc1)S(=O)(=O)c1cc(C(=O)O)ccc1C", "Potency": "inconclusive: 35.5 µM [inhibitor, single point]"}
{"smiles": "CCCNC(=O)CNC(=S)N(Cc1ccccc1F)C1CCCCC1", "Potency": "inconclusive: 28.2 µM [inhibitor, partial curve, poor fit]"}
{"smiles": "CC(=O)c1ccc(NC(=O)C2CCCN2S(=O)(=O)c2ccc(C)cc2)cc1", "note": "(stereo unspecified)", "Potency": "inconclusive: 39.8 µM [inhibitor, single point]"}
{"smiles": "Cn1cccc1/C=N/N1CCN(Cc2ccccc2Cl)CC1", "Potency": "inconclusive: 22.4 µM [inhibitor, single point]"}
{"smiles": "CN1C(=O)C(CC(=O)Nc2ccc(F)cc2)N(Cc2ccco2)C1=S", "note": "(stereo unspecified)", "Potency": "inactive"}
{"smiles": "CCS(=O)(=O)N1Cc2ccccc2CC1C(=O)Nc1nc2ccccc2s1", "note": "(stereo unspecified)", "Potency": "inconclusive: 22.4 µM [inhibitor, partial curve]"}
{"smiles": "Cc1cccn2c(NCc3ccc4c(c3)OCO4)c(-c3ccc(O)cc3)nc12", "Potency": "inconclusive: 22.4 µM [inhibitor, partial curve]"}
{"smiles": "c1ccc2c(CNCCN3CCOCC3)cccc2c1", "Potency": "inconclusive: 5.62 µM [inhibitor, single point]"}
{"smiles": "COC(=O)c1ccc(CSc2nnc(NC(=O)C3CC(=O)N(c4ccc5c(c4)OCCO5)C3)s2)cc1", "note": "(stereo unspecified)", "Potency": "inconclusive: 25.1 µM [inhibitor, partial curve]"}
{"smiles": "COc1ccccc1-n1c(SCc2cc(=O)oc3cc(O)ccc23)nc2ccccc2c1=O", "Potency": "inactive"}
{"smiles": "COc1ccc(OC)c(NC(=O)COC(=O)COc2ccc(Nc3ccccc3)cc2)c1", "Potency": "inconclusive: 12.6 µM [inhibitor, partial curve, poor fit]"}
{"smiles": "CC(C)Sc1nc(N)nc(-c2cccs2)c1C#N", "Potency": "inconclusive: 5.01 µM [inhibitor, single point]"}
{"smiles": "O=C(O)c1ccc(Nc2ncnc3c2cnn3Cc2ccccc2)cc1", "Potency": "inactive"}
{"smiles": "COc1ccc(N2CCN(C(=O)c3cc4c(s3)CCCCC4)CC2)cc1", "Potency": "inconclusive: 25.1 µM [inhibitor, partial curve]"}
{"smiles": "CCCOc1ccc(N2CC(C(=O)Nc3ccccc3OC)CC2=O)cc1", "note": "(stereo unspecified)", "Potency": "inconclusive: 39.8 µM [inhibitor, single point]"}
{"smiles": "CCOc1ccc(NCc2nnc(SCc3ccc(Cl)cc3)n2-c2ccccc2)cc1", "Potency": "inconclusive: 28.2 µM [inhibitor, partial curve]"}
{"smiles": "CN(C)S(=O)(=O)c1cccc(N=C2NN=C(c3ccccc3)CS2)c1", "Potency": "inconclusive: 3.55 µM [inhibitor, partial curve]"}
{"smiles": "CC(=O)NC12CC3CC(C1)CC(C(=O)OCC(=O)Nc1ncc(Cl)c(C)c1Cl)(C3)C2", "Potency": "inconclusive: 31.6 µM [inhibitor, single point]"}
{"smiles": "COc1ccc(S(=O)(=O)N2CCC3(CC2)CC(=O)c2ccccc2O3)cc1OC", "Potency": "inconclusive: 0.794 µM [inhibitor, single point]"}
{"smiles": "CN(C)S(=O)(=O)c1cccc(NC(=S)NC2CCCCC2)c1", "Potency": "inactive"}
{"smiles": "C=CCN1C(=O)/C(=C/c2ccc(OC(C)=O)c(OCC)c2[N+](=O)[O-])SC1=S", "Potency": "active: 39.8 µM"}
{"smiles": "COc1ccc(OCCCC(=O)Nc2nncs2)cc1", "Potency": "inconclusive: 6.31 µM [inhibitor, single point]"}
{"smiles": "Cc1ccc(-n2c(C)c3c(C)nnc(C)c3c2C)cc1", "Potency": "inconclusive: 0.794 µM [inhibitor, single point]"}
{"smiles": "Cc1cc(-c2nsc(=O)o2)c(S(C)(=O)=O)s1", "Potency": "inactive"}
{"smiles": "Cc1cc(O)c(-c2cc(C(=O)Nc3ccc(S(=O)(=O)N4CCOCC4)cc3)[nH]n2)cc1C", "Potency": "inactive"}
{"smiles": "O=C(Nc1nc(-c2ccccn2)cs1)c1ccc(-c2ccccc2F)o1", "Potency": "inconclusive: 39.8 µM [inhibitor, single point]"}
{"smiles": "Nc1cc(S(=O)(=O)Nc2ccccc2Cl)ccc1N1CCCC1", "Potency": "inconclusive: 28.2 µM [inhibitor, single point]"}
{"smiles": "CCOC(=O)c1c(C)oc2c1c(C=NCc1ccccn1)c(O)c1ccccc12", "Potency": "inconclusive: 31.6 µM [inhibitor, single point]"}
{"smiles": "CCn1c(SCC(=O)N2CCN(c3ccccc3)CC2)nc2c(c1=O)SC(C)C2", "note": "(stereo unspecified)", "Potency": "inconclusive: 3.98 µM [inhibitor, full curve]"}
{"smiles": "O=C(Nc1ccc(Br)cc1Cl)Nn1cnnc1", "Potency": "inconclusive: 0.708 µM [inhibitor, single point]"}
{"smiles": "Cc1nc(N2CCN(C)CC2)c2sc(=S)n(-c3ccccc3)c2n1", "Potency": "inconclusive: 25.1 µM [inhibitor, single point]"}
{"smiles": "CN(C)S(=O)(=O)c1ccc(C(=O)OCC(=O)c2csc(N3CCCCC3)n2)cc1", "Potency": "inconclusive: 35.5 µM [inhibitor, single point]"}
{"smiles": "CCCCCCn1c(SCCN2CCOCC2)nc2c1c(=O)[nH]c(=O)n2C", "Potency": "inactive"}
{"smiles": "COc1ccc(NC(=O)c2c3c(nc4ccccc24)CCN(Cc2ccccc2)C3)c(OC)c1", "Potency": "inconclusive: 11.2 µM [inhibitor, partial curve]"}
{"smiles": "C(=N\\N1CCOCC1)/c1cn(-c2ccccc2)nc1-c1ccccc1", "Potency": "inconclusive: 8.91 µM [inhibitor, full curve, poor fit]"}
{"smiles": "COc1cc(C(=O)ON=C2C(C)=CC(=O)C=C2C)cc(OC)c1OC", "Potency": "inactive"}
{"smiles": "O=C(CCSc1nc(-c2ccco2)cc(C(F)(F)F)n1)N1CCCc2ccccc21", "Potency": "inconclusive: 6.31 µM [inhibitor, single point]"}
{"smiles": "c1ccc(COc2ccc(OCCCN3CCCC3)cc2)cc1", "Potency": "inactive"}
{"smiles": "O=C1NC(=O)/C(=C/c2ccc(-c3cc(C(=O)O)ccc3Cl)o2)S1", "Potency": "active: 7.08 µM"}
{"smiles": "CC(C)n1c(SCC(=O)Nc2ccccc2N2CCOCC2)nc2c1c(=O)n(C)c(=O)n2C", "Potency": "inconclusive: 39.8 µM [inhibitor, single point]"}
{"smiles": "NS(=O)(=O)c1ccc(N=Nc2ccc(=O)[nH]c2O)cc1", "Potency": "inconclusive: 35.5 µM [inhibitor, single point]"}
{"smiles": "O=[N+]([O-])c1cc2oc3c(c2c(C=NCc2ccncc2)c1O)CCCC3", "Potency": "inconclusive: 39.8 µM [inhibitor, single point]"}
{"smiles": "CC(C)Cn1c(CN2CCN(c3ccccc3F)CC2)nc2c1c(=O)[nH]c(=O)n2C", "Potency": "inconclusive: 7.08 µM [inhibitor, single point]"}
{"smiles": "Clc1ccccc1CSc1nnc(-c2ccco2)c(-c2ccco2)n1", "Potency": "active: 8.91 µM"}
{"smiles": "CCOc1ccc(N2CCCn3c2nc2c3c(=O)n(CCc3ccccc3)c(=O)n2C)cc1", "Potency": "inactive"}
{"smiles": "COc1cc(/C=C(/C#N)c2nc3ccccc3[nH]2)ccc1OCC(=O)Nc1ccccc1C", "Potency": "inactive"}
